The text below walks through data of patent publication US20250376535A1 (BEIJING STARMAB BIOMED TECHNOLOGY, published 2025).

A word on the EC50: it is the concentration at which the effect is half-maximal. Usually IC50 stands for the concentration needed to halve the response being measured. Broadly, the Kd is the constant that tells how readily two partners part at equilibrium. Broadly, the koff is a measure of how fast the partners let go of each other. As a reminder, the kon is the rate constant with which the complex forms.

Experiment [1] deals with T1, human CD47 on the cell surface (human, UniProt Q08722).
T1 construct: whole, on cells; also called CHO-hCD47; CD47 on Jurkat cell surface
The experiment is described as follows: flow cytometry on CHO-hCD47 cells, MFI.

For experiment [2], the target named is T2, recombinant human CD40-Fc (human, UniProt P25942 part only).
T2 construct: also called rh-CD40-Fc; CD40-hFc
The experiment is described as follows: ELISA on recombinant human CD40-Fc, OD450. (In an ELISA, binding on a coated surface is turned into a signal by an enzyme label.)
recombinant human CD40-Fc, sequence (P25942 21-193): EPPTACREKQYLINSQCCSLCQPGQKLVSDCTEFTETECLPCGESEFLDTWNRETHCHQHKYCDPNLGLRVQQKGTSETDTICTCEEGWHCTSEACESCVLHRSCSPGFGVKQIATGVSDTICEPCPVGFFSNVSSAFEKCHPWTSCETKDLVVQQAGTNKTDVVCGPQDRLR

Experiment [3] concerns the target T3, human CD40 on the cell surface (human, UniProt P25942 21-277).
T3 construct: whole, on cells; also called CHO-hCD40
The experiment is described as follows: flow cytometry on CHO-hCD40 cells, MFI.

For experiment [4], the target named is T1, human CD47 on the cell surface. The experiment in a line: flow cytometry, blocking of SIRPa-his (1 ug/mL) binding to CD47 on Jurkat cells. On the technique in general: In flow cytometry, cells or beads pass a laser one at a time.
Experiment [5] addresses T3, human CD40 on the cell surface. The experiment is described as follows: cell-based or functional assay.
Experiment [6] concerns the target T4, recombinant human CD47-Fc.
T4 construct: the sheet prints no antigen name
The experiment is described as follows: ELISA on recombinant human CD47-Fc, OD450.

Experiment [7] deals with mouse CD40 (mouse, UniProt P27512 20-193, limits assumed). The experiment in a line: BLI. (In general: BLI is a label-free optical method that tracks binding on a fibre tip over time.)
UniProt P27512, sequence (P27512 20-193 limits assumed): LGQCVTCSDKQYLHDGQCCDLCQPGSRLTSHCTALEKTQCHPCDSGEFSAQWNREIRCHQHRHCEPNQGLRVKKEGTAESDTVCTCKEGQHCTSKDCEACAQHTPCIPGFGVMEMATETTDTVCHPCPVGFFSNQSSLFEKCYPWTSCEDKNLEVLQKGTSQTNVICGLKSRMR
Experiment [8] addresses T5, rat CD47 (rat, UniProt P97829 19-140, limits assumed).
T5 sequence (looked up): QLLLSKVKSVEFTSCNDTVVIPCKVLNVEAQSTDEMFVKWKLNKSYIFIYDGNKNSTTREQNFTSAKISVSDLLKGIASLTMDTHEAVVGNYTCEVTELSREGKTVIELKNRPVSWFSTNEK
The experiment is described as follows: BLI.

Experiment [9] addresses T6, mouse CD47 (mouse, UniProt Q61735 19-140, limits assumed).
T6 sequence (looked up): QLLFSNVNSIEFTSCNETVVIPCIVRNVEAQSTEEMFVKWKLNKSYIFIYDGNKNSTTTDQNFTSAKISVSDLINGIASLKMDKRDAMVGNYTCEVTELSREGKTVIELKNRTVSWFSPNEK
The experiment in a line: BLI.

In experiment [10] the target is T7, cynomolgus monkey CD40 (cynomolgus monkey, UniProt G7PG38 21-193).
T7 construct: also called Cyno-CD40*
The experiment in a line: BLI, format not stated.

Experiment [11] concerns the target T8, cynomolgus monkey CD47 (cynomolgus monkey, UniProt A0A2K5X523 19-139).
T8 construct: also called Cyno-CD47
The experiment in a line: BLI, format not stated.

The target in experiment [12] is T9, recombinant human CD47 (human, UniProt Q08722 part only).
T9 construct: also called Rh-CD47; rh-CD47
The experiment is described as follows: BLI, format not stated.

Experiment [13] has as its target T10, recombinant human CD40 (human, UniProt P25942 part only).
T10 construct: also called rh-CD40
The experiment in a line: BLI, format not stated.

Experiment [14] addresses T11, CD16A on the cell surface (human, UniProt P08637).
T11 construct: on the cell membrane; Cell-surface form; also called Jurkat-CD16A cells; human NK cells
The experiment is described as follows: flow cytometry on human NK cells, MFI.

Experiment [15] addresses T12, EGFR Fc (human, UniProt P00533 part only).
T12 construct: also called EGFR-hFc; recombinant human EGFR-Fc
The experiment is described as follows: ELISA on recombinant human EGFR-Fc, OD450.

For experiment [16], the target named is T13, recombinant human CD16A (human, UniProt P08637 part only).
T13 construct: also called rh-CD16A
The experiment in a line: ELISA on recombinant CD16A, OD450.

In experiment [17] the target is T14, EGFR on the cell surface (human, UniProt P00533).
T14 construct: full-length, on the cell membrane; Cell-surface form; also called EGFR on CHO-EGFR; CHO-K1-EGFR
The experiment in a line: flow cytometry on MB231 cells, MFI; the filing does not name the target on this line, EGFR is taken as the tumour-cell arm of SM2235 (EGFR x CD16A).

For experiment [18], the target named is T14, EGFR on the cell surface. The experiment in a line: flow cytometry on A431 cells, MFI; the filing does not name the target on this line, EGFR is taken as the tumour-cell arm of SM2235 (EGFR x CD16A).
The target in experiment [19] is T11, CD16A on the cell surface. The experiment in a line: flow cytometry on Jurkat-CD16A cells, MFI.
T11 sequence (P08637 17-254 limits assumed): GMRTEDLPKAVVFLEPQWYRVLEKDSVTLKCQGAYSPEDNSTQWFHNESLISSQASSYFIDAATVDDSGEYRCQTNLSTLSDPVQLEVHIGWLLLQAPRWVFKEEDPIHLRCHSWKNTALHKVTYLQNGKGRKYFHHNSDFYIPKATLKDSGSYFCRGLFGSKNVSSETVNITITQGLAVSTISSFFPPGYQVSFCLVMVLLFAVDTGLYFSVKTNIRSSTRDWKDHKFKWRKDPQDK
Experiment [20] has as its target mouse EGFR (mouse, UniProt Q01279 25-647). The experiment in a line: BLI.
Experiment [21] has as its target T15, recombinant human ErbB2 (human, UniProt P04626 part only).
T15 construct: also called rh-ErbB2
The experiment in a line: BLI.

In experiment [22] the target is T16, recombinant human ErbB3 (human, UniProt P21860 part only).
T16 construct: also called rh-ErbB3
The experiment in a line: BLI.

Experiment [23] has as its target T17, rat CD16 (rat, UniProt P27645 37-221, limits assumed).
T17 sequence (looked up): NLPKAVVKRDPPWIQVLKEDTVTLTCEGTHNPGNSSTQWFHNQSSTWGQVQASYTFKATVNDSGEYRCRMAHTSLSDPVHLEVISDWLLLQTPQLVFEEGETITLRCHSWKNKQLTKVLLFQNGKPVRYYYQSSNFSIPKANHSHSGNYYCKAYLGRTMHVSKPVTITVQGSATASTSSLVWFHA
The experiment in a line: BLI.

Experiment [24] concerns the target T18, mouse CD16 (mouse, UniProt P08508 31-215).
T18 sequence (looked up): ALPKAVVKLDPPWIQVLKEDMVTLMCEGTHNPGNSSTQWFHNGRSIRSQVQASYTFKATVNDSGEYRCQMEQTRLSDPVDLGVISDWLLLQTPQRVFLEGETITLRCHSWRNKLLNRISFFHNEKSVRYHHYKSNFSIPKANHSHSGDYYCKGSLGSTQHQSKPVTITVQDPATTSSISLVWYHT
The experiment in a line: BLI.

Experiment [25] deals with T19, recombinant human ErbB4 (human, UniProt Q15303 26-649).
T19 construct: also called rh-ErbB4
T19 sequence (looked up): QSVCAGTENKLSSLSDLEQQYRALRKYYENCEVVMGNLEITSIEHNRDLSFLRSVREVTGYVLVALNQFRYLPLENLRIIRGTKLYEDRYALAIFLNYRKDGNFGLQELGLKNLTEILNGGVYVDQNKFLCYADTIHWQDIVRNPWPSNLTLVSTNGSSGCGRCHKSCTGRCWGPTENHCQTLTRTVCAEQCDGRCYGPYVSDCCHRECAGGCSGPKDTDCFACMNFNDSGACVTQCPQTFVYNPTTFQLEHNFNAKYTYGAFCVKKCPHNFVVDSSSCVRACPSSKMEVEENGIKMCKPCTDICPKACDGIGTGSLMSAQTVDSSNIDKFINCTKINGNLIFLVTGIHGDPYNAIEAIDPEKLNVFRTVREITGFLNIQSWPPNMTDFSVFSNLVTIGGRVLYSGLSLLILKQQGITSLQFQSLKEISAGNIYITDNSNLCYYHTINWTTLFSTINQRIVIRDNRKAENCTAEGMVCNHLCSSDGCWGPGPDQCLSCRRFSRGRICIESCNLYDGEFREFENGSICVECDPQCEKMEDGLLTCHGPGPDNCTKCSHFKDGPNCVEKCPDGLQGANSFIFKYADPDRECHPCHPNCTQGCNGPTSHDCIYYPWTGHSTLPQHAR
The experiment in a line: BLI.

Experiment [26] has as its target T20, recombinant human EGFR (human, UniProt P00533 part only).
T20 construct: also called rh-EGFR
The experiment in a line: BLI, format not stated.

For experiment [27], the target named is T21, recombinant human CD16A (human, UniProt P08637 part only).
T21 construct: also called rh-CD16A
The experiment in a line: BLI, format not stated.

Experiment [28] concerns the target T22, cynomolgus monkey CD16A (cynomolgus monkey, UniProt Q8SPW2 17-208).
T22 construct: also called Cyno-CD16A
T22 sequence (Q8SPW2 17-208 limits assumed): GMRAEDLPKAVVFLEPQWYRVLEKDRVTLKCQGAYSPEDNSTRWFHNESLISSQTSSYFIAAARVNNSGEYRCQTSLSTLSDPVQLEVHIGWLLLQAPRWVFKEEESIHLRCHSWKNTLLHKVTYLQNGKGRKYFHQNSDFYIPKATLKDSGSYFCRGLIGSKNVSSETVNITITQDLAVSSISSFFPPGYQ
The experiment is described as follows: BLI, format not stated.

Experiment [29] has as its target T23, cynomolgus monkey EGFR (cynomolgus monkey, UniProt A0A2K5WK39 25-645).
T23 construct: also called Cyno-EGFR
The experiment in a line: BLI, format not stated.

T3 sequence (P25942 21-277): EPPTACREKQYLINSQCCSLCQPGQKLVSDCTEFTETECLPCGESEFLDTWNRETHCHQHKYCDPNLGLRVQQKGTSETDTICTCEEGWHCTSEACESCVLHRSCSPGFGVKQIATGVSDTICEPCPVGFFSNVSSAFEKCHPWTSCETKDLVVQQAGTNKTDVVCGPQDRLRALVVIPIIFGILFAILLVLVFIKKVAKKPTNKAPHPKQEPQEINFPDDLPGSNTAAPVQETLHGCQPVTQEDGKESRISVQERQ

B1: SM2248 (bispecific antibody)
chain: EVQLVESGGGLVQPGGSLRLSCAASGGGRTFSNYALGWFRQAPGKEREFVAAISRSGGNINYADSVKGRFTISRDNFKNTLYLQMSSLRPEDTAVYYCAAHYLLLPSYISTSTNMYNYWGQGTQVTVKPGGGG[letters of human IgG1 Fc with N297A P374S (EU numbers) left out]SGGGGSGGGGSQVQLVESGGGLVQPGGSLRLSCSASGRAFNTYTMAWFRQAPGKERDFVAAISRDGTITYYADSVKGRFTISRDNSKNTLYLQMSSLRAEDTAVYYCAARRVGAVPERESAYEHWGQGTQVTVSS
notes: VHH-Fc-VHH chain specific for CD40 and CD47; also called SM2248-177; hA09-10*-Fc(S)-pgDD40-SZ-3-4F1
In the case of B1, the EC50 in experiment [1] was found to be 0.2 nM; in [2], 0.19 nM; in [3] it was 0.8 nM; in experiment [6], 0.12 nM. The IC50 in [4] is 2.6 nM. Besides, the “EC50 of luciferase signal in 293T-NFKB-CD40 reporter cells co-cultured with CHO-CD47 cells” value in [5] turned out to be 0.1 nM.

B2: SM2248-177, hA09-10*-Fc(S)-pgDD40-SZ-3-4F1, specific for CD40 and CD47 (bispecific antibody)
chain: EVQLVESGGGLVQPGGSLRLSCAASGGGRTFSNYALGWFRQAPGKEREFVAAISRSGGNINYADSVKGRFTISRDNFKNTLYLQMSSLRPEDTAVYYCAAHYLLLPSYISTSTNMYNYWGQGTQVTVKPGGGG[letters of human IgG1 Fc with N297A P374S (EU numbers) left out]SGGGGSGGGGSQVQLVESGGGLVQPGGSLRLSCSASGRAFNTYTMAWFRQAPGKERDFVAAISRDGTITYYADSVKGRFTISRDNSKNTLYLQMSSLRAEDTAVYYCAARRVGAVPERESAYEHWGQGTQVTVSS
As for B2, the binding result in experiment [7], in [8] and in experiment [9] was “no binding” each time. In addition, the Kd in [10] was determined as 0.0528 nM; in experiment [11] it was 0.757 nM; in [12], 0.08 nM; in [13], 0.0707 nM. Further, the koff came to 3.36e-05 s⁻¹ in experiment [10], 0.00148 s⁻¹ in [11], 7.11e-05 s⁻¹ in experiment [12] and 5.86e-05 s⁻¹ in experiment [13]. Also, the kon came to 636000 M⁻¹ s⁻¹ in [10], 1.95e+06 M⁻¹ s⁻¹ in experiment [11], 888000 M⁻¹ s⁻¹ in experiment [12] and 828000 M⁻¹ s⁻¹ in experiment [13].

B3: SM2235 (bispecific antibody)
chain: QVQLVESGGGLVQPGGSLRLSCTASGIRFSFYTLGWYRQAPGKGRELVAEIYSSDNAKYADSVKGRFTISRDNAKNSLYLQMNSLRAEDTAVYYCNVRATDYWGPGTQVTVKPGGGG[letters of human IgG1 Fc with N297A P374S (EU numbers) left out]GGGSGGGGSGGGGSQVQLVESGGGLVQPGGSLRLSCRASGFTFSNHAMSWVRQAPGKGLEWVSEISFNGHATRYADSVKGRFTISRDNSKNTLYLQMNSLRAEDTAVYYCRKGWNATPQIGERGRGTQVTVSS
notes: VHH-Fc-VHH chain specific for EGFR and CD16A
On to B3, for which the EC50 in experiment [14] is 0.62 nM; in experiment [15], 0.14 nM; in experiment [16], 0.15 nM; in experiment [17], 1.02 nM; in [18] it was 1.6 nM; in experiment [19] it was 0.6 nM.

B4: SMSM2235-113, specific for EGFR and CD16A (bispecific antibody)
chain: QVQLVESGGGLVQPGGSLRLSCTASGIRFSFYTLGWYRQAPGKGRELVAEIYSSDNAKYADSVKGRFTISRDNAKNSLYLQMNSLRAEDTAVYYCNVRATDYWGPGTQVTVKPGGGG[letters of human IgG1 Fc with N297A P374S (EU numbers) left out]GGGSGGGGSGGGGSQVQLVESGGGLVQPGGSLRLSCRASGFTFSNHAMSWVRQAPGKGLEWVSEISFNGHATRYADSVKGRFTISRDNSKNTLYLQMNSLRAEDTAVYYCRKGWNATPQIGERGRGTQVTVSS
With B4, the binding result in [20], in [21], in [22], in [23], in [24] and in [25] was “no binding” in each case. For the same molecule, the results for the Kd in [26], in experiment [27] and in experiment [29] were 0.346 nM, 0.0385 nM and 0.2 nM, respectively. In addition, the koff in [26] amounted to 0.000128 s⁻¹; in experiment [27] it was 4.28e-05 s⁻¹; in [28], 4.28e-05 s⁻¹; in experiment [29] it was 0.00017 s⁻¹. The kon worked out at 369000 M⁻¹ s⁻¹ in [26], 1.11e+06 M⁻¹ s⁻¹ in experiment [27], 1.11e+06 M⁻¹ s⁻¹ in experiment [28] and 850000 M⁻¹ s⁻¹ in [29].
